The results in this text go back to PMC9135253, “Potential of phenothiazines to synergistically block calmodulin and reactivate PP2A in cancer cells” (PLoS ONE, 2022).

Where “and” joins values, the source holds several entries; their conditions need not be identical. Equal entries are not always repeated. Where two headings read alike, the source gives them in different places.

In assay [1] the target is T1, recombinant bovine CaM (Bos taurus, UniProt P62157).
Assay [2] addresses Rluc8-K-RasG12V/ GFP2-CaM in HEK-293 EBNA cells (Homo sapiens, UniProt P0DP23). The class given is cell-based. To be noted: for remaining activity at 80 µM / remaining activity at 40 µM / remaining activity at 20 µM / remaining activity at 10 µM / remaining activity at 5 µM / remaining activity at 1 µM / remaining activity at 0.1 µM: HEK293-EBNA, 24 h, read-out: normalized BRET ratio; for remaining activity at 40 µM: log c (inhibitor) /M -4.39794; for remaining activity at 10 µM: log c (inhibitor) /M -5; for remaining activity at 5 µM: log c (inhibitor) /M -5.30103; for remaining activity at 1 µM: log c (inhibitor) /M -6; for remaining activity at 0.1 µM: log c (inhibitor) /M -7; for DSS3 BRET score: K-RasG12V/CaM BRET, dose response 0.1–80 μM. For orientation: In BRET a luciferase serves as donor, and the signal depends on an acceptor being close.

Assay [3] concerns the target T1, recombinant bovine CaM. Description: biochemical.

As to `O=S(=O)(N[C@@H]1CCC[C@H](N2c3ccccc3Oc3ccccc32)[C@H]1O)c1ccc(OC(F)(F)F)cc1` [DT-061], the “affinity / binding to CaM (in words)” value at recombinant bovine CaM [1] (fluorescence polarization) is listed as “essentially no binding”. Further, the Anisotropy values was 111.6 on recombinant bovine CaM [1] (log c /M -3.52288, mean); 105.5 and 117.7 at recombinant bovine CaM [1] (log c /M -3.52288, replicates N1, N2); 122.4 on recombinant bovine CaM [1] (log c /M -4, mean); 119.6 and 125.2 on recombinant bovine CaM [1] (log c /M -4, replicates N1, N2); 127.35 on recombinant bovine CaM [1] (log c /M -4.47712, mean); 128.5 and 126.2 at recombinant bovine CaM [1] (log c /M -4.47712, replicates N1, N2). Moreover, the Anisotropy values at recombinant bovine CaM [1] (log c /M -4.95424, mean) is 118.75; at recombinant bovine CaM [1] (log c /M -4.95424, replicates N1, N2) it was 120.1 and 117.4; on recombinant bovine CaM [1] (log c /M -5.43136, mean) it was 117.25; at recombinant bovine CaM [1] (log c /M -5.43136, replicates N1, N2) it was 116.1 and 118.4; on recombinant bovine CaM [1] (log c /M -5.90848, mean), 113.75; on recombinant bovine CaM [1] (log c /M -5.90848, replicates N1, N2), 115.6 and 111.9. For the same compound, the Anisotropy values on recombinant bovine CaM [1] (log c /M -6.38561, mean) was 115.75; at recombinant bovine CaM [1] (log c /M -6.38561, replicates N1, N2) it was 114.2 and 117.3; on recombinant bovine CaM [1] (log c /M -6.86273, mean) it was 115.25; on recombinant bovine CaM [1] (log c /M -6.86273, replicates N1, N2), 114.8 and 115.7; on recombinant bovine CaM [1] (log c /M -7.33985, mean), 112.5; on recombinant bovine CaM [1] (log c /M -7.33985, replicates N1, N2), 115.3 and 109.7. The Anisotropy values on recombinant bovine CaM [1] (log c /M -7.81697, mean) was 114.8; at recombinant bovine CaM [1] (log c /M -7.81697, replicates N1, N2), 114.4 and 115.2; on recombinant bovine CaM [1] (log c /M -8.29409, mean) it was 112.8; at recombinant bovine CaM [1] (log c /M -8.29409, replicates N1, N2) it was 109.6 and 116; on recombinant bovine CaM [1] (log c /M -8.77121, mean), 112.9; at recombinant bovine CaM [1] (log c /M -8.77121, replicates N1, N2), 112.8 and 113. Moreover, the remaining activity at 80 µM in assay [2] (log c (inhibitor) /M -4.09691, non-treated control = 100, replicates N1-N3) amounted to 107%; in assay [2] (log c (inhibitor) /M -4.09691, Mean), 111%. For the same compound, the remaining activity at 40 µM came out at 109% in assay [2] (Mean) and 111% in assay [2] (replicates N1-N3). In addition, the remaining activity at 20 µM was 115% in assay [2] (log c (inhibitor) /M -4.69897, Mean) and 115% in assay [2] (log c (inhibitor) /M -4.69897, replicates N1-N3). Moreover, the remaining activity at 10 µM was determined as 90.8% in assay [2] (Mean) and 95.1% in assay [2] (replicates N1-N3). The results for the remaining activity at 5 µM in assay [2] (Mean) and in assay [2] (replicates) were 100% and 95.1%, respectively. The remaining activity at 1 µM is 97.2% in assay [2] (Mean) and 94.5% in assay [2] (replicates N1-N3). The remaining activity at 0.1 µM in assay [2] (Mean) came out at 92.8%; in assay [2] (replicates N1-N3), 91.9%. In addition, the “DSS3 BRET score” value in assay [2] (mean) and in assay [2] (replicates N1-N3) was 0 each time. Also, in assay [2] (response to reviewers), the “effect in the K-Ras/CaM BRET assay (in words)” value is “no effect”. For the same compound, the IC50 – broadly, the concentration at which inhibition is half-maximal – at recombinant bovine CaM [3] was over 3700 µM. Also, on recombinant bovine CaM [3], the Kd – broadly, the concentration at which binding is half-saturated – was over 200000 nM.
For `Clc1ccc(C(c2ccc(Cl)cc2)n2cc[n+](CC(OCc3ccc(Cl)cc3Cl)c3ccc(Cl)cc3Cl)c2)cc1` (centres unmarked) [calmidazolium], the Anisotropy values at recombinant bovine CaM [1] (log c /M -5, mean) is 70.7; on recombinant bovine CaM [1] (log c /M -5, replicates N1, N2, listed as calmidazolium Cl) it was 71 and 70.4; on recombinant bovine CaM [1] (log c /M -5.47712, mean), 67.55; at recombinant bovine CaM [1] (log c /M -5.47712, replicates N1, N2, listed as calmidazolium Cl), 65.9 and 69.2; on recombinant bovine CaM [1] (log c /M -5.95424, mean) it was 70.45; on recombinant bovine CaM [1] (log c /M -5.95424, replicates N1, N2, listed as calmidazolium Cl), 70.1 and 70.8. Also, the Anisotropy values on recombinant bovine CaM [1] (log c /M -6.43136, mean) is 72.95; on recombinant bovine CaM [1] (log c /M -6.43136, replicates N1, N2, listed as calmidazolium Cl), 69.7 and 76.2; at recombinant bovine CaM [1] (log c /M -6.90848, mean), 85.15; on recombinant bovine CaM [1] (log c /M -6.90848, replicates N1, N2, listed as calmidazolium Cl) it was 78.3 and 92; on recombinant bovine CaM [1] (log c /M -7.38561, mean) it was 96.95; at recombinant bovine CaM [1] (log c /M -7.38561, replicates N1, N2, listed as calmidazolium Cl) it was 90.9 and 103. In addition, the Anisotropy values on recombinant bovine CaM [1] (log c /M -7.86273, mean) is 103.65; on recombinant bovine CaM [1] (log c /M -7.86273, replicates N1, N2, listed as calmidazolium Cl), 95.9 and 111.4; on recombinant bovine CaM [1] (log c /M -8.33985, mean), 107.9; on recombinant bovine CaM [1] (log c /M -8.33985, replicates N1, N2, listed as calmidazolium Cl), 102.5 and 113.3; on recombinant bovine CaM [1] (log c /M -8.81697, mean) it was 108.7; on recombinant bovine CaM [1] (log c /M -8.81697, replicates N1, N2, listed as calmidazolium Cl), 102.7 and 114.7. Also, the Anisotropy values is 109.7 at recombinant bovine CaM [1] (log c /M -9.29409, mean); 103.4 and 116 at recombinant bovine CaM [1] (log c /M -9.29409, replicates N1, N2, listed as calmidazolium Cl); 111.35 at recombinant bovine CaM [1] (log c /M -9.77121, mean); 105.2 and 117.5 at recombinant bovine CaM [1] (log c /M -9.77121, replicates N1, N2, listed as calmidazolium Cl); 109.25 on recombinant bovine CaM [1] (log c /M -10.2483, mean); 104.1 and 114.4 at recombinant bovine CaM [1] (log c /M -10.2483, replicates N1, N2, listed as calmidazolium Cl). Further, the “DSS3 BRET score” value in assay [2] (mean) is 14.33; in assay [2] (replicates N1-N3), 11.4 and 10.8 and 20.8. The IC50 at recombinant bovine CaM [3] is 0.08 ± 0.04 µM. Moreover, the equilibrium dissociation constant (Kd) on recombinant bovine CaM [3] was found to be 1.1 ± 0.1 nM.
In the case of `OCCN1CCN(CCCN2c3ccccc3Sc3ccc(C(F)(F)F)cc32)CC1` [fluphenazine], the “DSS3 BRET score” value in assay [2] (mean) was 4.73; in assay [2] (replicates N1-N3), 5.3 and 3.6.
As to `CC(C)=C[C@H]1C[C@H](C)[C@]2(CC[C@]3(C)C[C@H]4[C@H](C(=O)C[C@@]4(C)O)/C(C=O)=C\C[C@H]32)O1` [ophiobolin A], in assay [2], the “normalized BRET ratio” value was 16.38 and 23.8; the remaining activity at 20 µM worked out at 27.7%; the remaining activity at 80 µM amounted to 16.1%. In addition, in assay [2] (Mean), the remaining activity at 40 µM came out at 20.4%, the remaining activity at 10 µM amounted to 30.5%, the remaining activity at 5 µM stood at 45% and the remaining activity at 1 µM came out at 82.5%. Moreover, the remaining activity at 0.1 µM in assay [2] (Mean) came out at 96.5%. Also, in assay [2] (replicates N1-N3), the remaining activity at 40 µM was determined as 22.1%, the remaining activity at 10 µM came out at 29.1%, the remaining activity at 1 µM turned out to be 81.2% and the remaining activity at 0.1 µM was 89.5%. Moreover, the “DSS3 BRET score” value in assay [2] (replicates N1-N3) was 27.3 and 28.9 and 37.7. Also, the remaining activity at 5 µM in assay [2] (replicates) was 45%. The “DSS3 BRET score” value in assay [2] (mean) worked out at 31.3.
